Drawing on the RNAGym collection of RNA variant scans (doi:10.1093/nar/gkz1192), this text covers self-cleavage for 34 variants.

To fix the notation:
B1: CPEB3 Ribozyme (parent)
chain: UAACAGGGGGCCACAGCAGAAGCGUUCACGUCGCAGCCCCUGUCAGAUUCUGGUGAAUCUGCGAAUUCUGCUGUAUAUCUC

Read counts are not given, so values of variants with three or more changes are uncertain.

In the data set the parent is B1. The data set is described as follows: self-cleavage, relative activity (ratio to wild type); higher = more cleavage; in vitro, sequencing. Summed up:
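For each CPEB3 ribozyme variant, relative activity is its cleaved/total read fraction divided by the unmutated ribozyme's. Barcoded error-prone PCR libraries were transcribed by T7 RNA polymerase (5 hours, 37°C) and held in DNase I for 15 min before an EDTA stop, with cleavage occurring throughout. Template-switching reverse transcription and Illumina sequencing were used to read the RNAs. A 5-read minimum applied, and results are the mean of three batches.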
As to UAACAGGGGGCCACAGCAGAAACAUUCACGGCGCAGCCCCUGUCGGAUUCUGGUGAAUCUGCGAAUUCUGCUGUAUAUCUC [G22A G24A U31G A45G], the self-cleavage was 0.07. For the variant UAACAGGGGGCCACAGCAGAAACGCUCACGUCGCAGCCCAAGUCAGACUCUGGUGAAUCUGCGAAUUCUGCUGUAUAUCUC [G22A U25C C40A U41A U48C], the self-cleavage worked out at 0.06.

Regarding UAACAGGGGGCCACAGCAGAACCGCUCACGUCACAGCCCCUGUCAGAUUCUGCUGAAACUGCGAAUUCUGCUGUAUAUCUC [G22C U25C G33A G53C U58A], the self-cleavage was 0.04. Consider UAACAGGGGGCCACAGCAGAAUCGUUCUCGACGCAGCCCCUGUCAGAUUCUGGUGAGUCUGCGAAUUCUGCCGUAUAUCUC [G22U A28U U31A A57G U72C], for which the self-cleavage is 0.06. Then UAACAGGGGGCCACAGCAGAAACGUACACGUCGCAGCCCCUGCCAGAUUCUGGUGAAUCUGCGAAUUCUGCUGUAUAUCUC [G22A U26A U43C], with 0.17; and UAACAGGGGGCCACAGCAGAAACGUUCACGUCACAGCCCCUGUCAGAUUCUGGUGAAUCUGCGAAUUCUGCUGUAAAUCUC [G22A G33A U76A], with 0.41.

For UAACAGGGGGCCACAGCAGAAACGUUCACGUCGCAGCCCCUGUCAGAUUCAGGUGAAUCUGCGAAUUCUGCUGUAUGUCUC [G22A U51A A77G], the self-cleavage worked out at 0.09. Turning to UAACAGGGGGCCACAGCAGAAUCGUUCGCGUCGCCGCCCCUGUCAGACUCUGGUGAAUCUGCGAAUUCUGCUGUAUAUCUC [G22U A28G A35C U48C], the self-cleavage was 0.08. Then UAACAGGGGGCCACAGCAGAAUCGUUCCCGUCGCAGCCCCUGUCAGAUUCUGGUGAAUCUGCGAAUUCUGCUGUGUAUCUC [G22U A28C A75G], with 0.12; and UAACAGGGGGCCACAGCAGAACCGUUCACGUCGCAGCCCCUGUCAGAUCCUGGUGAAUCUGCGUAUUCUGCUGUAUAUCUC [G22C U49C A64U], with 0.12. For the variant UAACAGGGGGCCACAGCAGAAACGUUCACGUCGCAGCCCCUGUCAGUUUCUGGAGUAUCUGCGAAUUCCGCUGUAUAUCUC [G22A A47U U54A A56U U69C], the self-cleavage is 0.06.

Regarding UAACAGGGGGCCACAGCAGAAACGUUCACGUCGCAGCCCCUGUCAGAUUCUGGUGUAUCUGCGAAUUCUGCUGUGUAUCCC [G22A A56U A75G U80C], the self-cleavage was found to be 0.12.

For UAACAGGGGGCCACAGCAGAAUCGUUCACGUCGCGGCCCCUGUCAGAUUCUGGUGAGUCUGCGAAUUCUGCUGUAUAUCUC [G22U A35G A57G], the self-cleavage was determined as 0.26. Under UAACAGGGGGCCACAGCAGAAACGCUCACGUCGCAGCCCCUGUCAGAUUCUGGUGAAUCUGCUAAUUCUGCUGUAUAUCUC [G22A U25C G63U] stands 0.22; under UAACAGGGGGCCACAGCAGAAACGUUCACGUCGCAGCCCCUGUCGGAUUCUGGUGUAUCUGCGAAUUCUGCUGUAUAUCUC [G22A A45G A56U], 0.11; under UAACAGGGGGCCACAGCAGAAACGCUCACGUCGCAGCCCCUGUCAGAUUCUGGUGAAUCAGCGAAUUCUGCCGUAUAUCUC [G22A U25C U60A U72C], 0.15. For the variant UAACAGGGGGCCACAGCAGAAACGUACACGUCGCAGCCCCUGUCAGAUUCUGGUGAAUCUGCGAAUACUGCUGUGUAUCUC [G22A U26A U67A A75G], the self-cleavage stood at 0.1.

Consider UAACAGGGGGCCACAGCAGAAACGUUCACGUCGCAGCCCCGGUCUGAUCCUGGUGAAUCUGCGAAUCCUGCUGUGUAUCUC [G22A U41G A45U U49C U67C A75G], for which the self-cleavage was 0.08.

For the variant UAACAGGGGGCCACAGCAGAACCGUUCACGUCGCGGCCCCUGUCAGAUUCUGGUGAAUCUGAGAAUUCUGCUGUAUAUCUC [G22C A35G C62A], the self-cleavage stood at 0.06.

For UAACAGGGGGCCACAGCAGAAACGUUCACGUCGCAGCCCCCGUCAGAUCCUGGUGAAUCUGCGAAUUCUGCUGUAUACCUC [G22A U41C U49C U78C], the self-cleavage stood at 0.05. Turning to UAACAGGGGGCCACAGCAGAAACGUUCACGUCGCAGCCCCUGUCAGAUUCUGGUGAAUCUGCGAAUUCUGCUGUUUACCUC [G22A A75U U78C], the self-cleavage was determined as 0.28. Under UAACAGGGGGCCACAGCAGAAUCGUUCUCGUCGCAGCCCCUGUCAGAUUCUGGUGAGGCUGCGAAUUCUGCUGUAAAUCUC [G22U A28U A57G U58G U76A] stands 0.14. Then UAACAGGGGGCCACAGCAGAAACGUUCACGUCGCAGCCCCUGUCAGAUUCUGGCGAAUCUGCGAGUUCUGCUGUAUAUCUC [G22A U54C A65G], with 0.18; and UAACAGGGGGCCACAGCAGAACCGUUCACGUCGCAGCCCCUGUCAGAUUCUGGUGGAUCAGCGAAUUCUGCUGUAUAUCUC [G22C A56G U60A], with 0.15. As for UAACAGGGGGCCACAGCAGAAACGUUCACGUCGCAGCCCCUGCCAGAUUCUGGUGAAUCAGUGAAUUCUGCUGUAUAUCUC [G22A U43C U60A C62U], the self-cleavage was 0.1. Turning to UAACAGGGGGCCACAGCAGAACCGUUCACGUCGCGGCCCCUGUCUGAUUCUGGUGAAUAUGCGAAUUCUGCUGUAUAUCUC [G22C A35G A45U C59A], the self-cleavage amounted to 0.16. In the case of UAACAGGGGGCCACAGCAGAACCGUUCACGUCGCAGCCACUGUCAGAUUCUGGUGAACCUGCGAAUUCUGCUGUAUAUCUC [G22C C39A U58C], the self-cleavage is 0.07. Consider UAACAGGGGGCCACAGCAGAAACAUUCACAUCGCAGCCCCUGUCAGGUUCUGGUGAAUCAGCGAAUUCUGCUGUAUAUCUC [G22A G24A G30A A47G U60A], for which the self-cleavage is 0.12. Take UAACAGGGGGCCACAGCAGAAACGUUCACGUCGCAGCCCCUGUCAGAUUCUGGCGAUUCUGCGAAUCCUGCUGUAUUUCUC [G22A U54C A57U U67C A77U]: the self-cleavage worked out at 0.04. Then UAACAGGGGGCCACAGCAGAACCGUUCACCUCGCAGCCCCUGUCAGACUCUGGUGAAUCUGCGAAUUCUGCUGUAUAUCUC [G22C G30C U48C], with 0.07. In the case of UAACAGGGGGCCACAGCAGAAACGUUCACGUCGCAGCCCAUGUCAGGUUUAGGUGAAUCUGCGAAUUCUGCUGUAUAUCUC [G22A C40A A47G C50U U51A], the self-cleavage came out at 0.07. On to UAACAGGGGGCCACAGCAGAACCGUUCACGCCGCAGCCCCCGUCAGAUUCUGGUGAAUCCGCGAAUUCCGCUGUAUAUCUC [G22C U31C U41C U60C U69C], for which the self-cleavage stood at 0.03. Regarding UAACAGGGGGCCACAGCAGAAACGCUCACGUCGCAGCCCCUGUCAGAUUCUGGUGAAUCUGCGAAUUCUGCUGUUUAUCUC [G22A U25C A75U], the self-cleavage came out at 0.27. Regarding UAACAGGGGGCCACAGCAGAAACGUUCACGUCGCAGCCCCUGUCUGAUUCCGGUGAAUCUGCGAAUUCUGCUGUAUAUCUC [G22A A45U U51C], the self-cleavage stood at 0.12.
